Assay results reported in the supplement of paper PMC12217912.
Some of the results follow. Sequences were assembled here from the parent chain. Values near 0.05 are background.

B1: TEV protease; numbered along this chain (parent)
chain: MGESLFKGPRDYNPISSSICHLTNESDGHTTSLYGIGFGPFIITNKHLFRRNNGTLVVQSLHGVFKVKDTTTLQQHLVDGRDMIIIRMPKDFPPFPQKLKFREPQREERICLVTTNFQTKSMSSMVSDTSCTFPSGDGIFWKHWIQTKDGQCGSPLVSTRDGFIVGIHSASNFTNTNNYFTSVPKNFMELLTNQEAQQWVSGWRLNADSVLWGGHKVFMVKPEEPFQPVKEATQL

Variants of: B1
Assay: raw area under fraction-flipped curve 0-4 h after induction (AUC4h, not background-subtracted), DNA-recorder readout of cleavage of the substrate (dimensionless); higher = more cleavage of the substrate by the protease variant
Settings: temperature: 34 °C; time window: 0-4 h after rhamnose induction
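Note: Bxb1 expression induced with 0.2% (w/v) L-rhamnose at OD600 near 0.5, cultures sampled hourly, flipped fraction per protease–substrate barcode pair counted by paired-end Illumina sequencing.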

Row | Variant | area with substrate ENAYFQS | area with substrate ENDYFQS | area with substrate ENEYFQS | area with substrate ENFYFQS | area with substrate ENGYFQS | area with substrate ENHYFQS | area with substrate ENIYFQS | area with substrate ENKYFQS | area with substrate ENNYFQS | area with substrate ENPYFQS | area with substrate ENQYFQS | area with substrate ENRYFQS | area with substrate ENSYFQS | area with substrate ENTYFQS | area with substrate ENWYFQS | area with substrate ENCYFQS | area with substrate ENVYFQS | area with substrate ENYYFQS | area with substrate ENMYFQS
1 | MGESLFKGPRDYNPISSSICHLTNESDGHTTSLYGIGFGPFIITNKHLFRRNNGTLVVQSLHGVFKVKDTTTLQQHLVDGRDMIIIRMPKDFPPFPQKLKFREPQREERICLVTTNFQTKSMSSMVSDTSCTFPSGDGIFWKHWIQTKDGQCGSPLVSTRDGFIVGIHSASNFTNTNNYFTSVPKNFMELLTNQEAQQWVSGWRLNADSVLWGGHKVFMVKPEEPFQPVFEATQL [K230F] | 0.0729 | 0.0597 | 0.0715 | 0.0604 | 0.0575 | 0.0532 | 0.098 | 0.0469 | 0.0379 | 0.0493 | 0.065 | 0.0769 | 0.134 | 0.0558 | 0.0067 | – | – | – | –
2 | MGESLFKGPRDYNPISSSICHLTNESDGHTTSLYGIGFGPFIITNKHLFRRNNGTLVVQSLHGVFKVKDTTTLQQHLVDGRDMIIIRMPKDFPPFPQKLKFREPQREERICLVTTNFQTKSMSSMVSDTSCTFPSGDGIFWKHWIQTKDGQCGSPLVSTRDGFIVGIHSASNFTNTNNYFTSVPKNFMELLTNQEAQQWVSGWRLNADSVLWGGHKVFMVKPEEPFQPVIEATQL [K230I] | 0.06 | 0.0619 | – | 0.0309 | 0.0623 | 0.0629 | 0.131 | – | 0.0718 | 0.0585 | 0.0649 | 0.0675 | – | – | – | 0.0657 | 0.0685 | 0.0492 | –
3 | MGESLFKGPRDYNPISSSICHLTNESDGHTTSLYGIGFGPFIITNKHLFRRNNGTLVVQSLHGVFKVKDTTTLQQHLVDGRDMIIIRMPKDFPPFPQKLKFREPQREERICLVTTNFQTKSMSSMVSDTSCTFPSGDGIFWKHWIQTKDGQCGSPLVSTRDGFIVGIHSASNFTNTNNYFTSVPKNFMELLTNQEAQQWVSGWRLNADSVLWGGHKVFMVKPEEPFQPVPEATQL [K230P] | 0.0618 | 0.0587 | 0.0564 | 0.0632 | 0.0555 | 0.0602 | – | – | 0.0568 | 0.0511 | 0.0609 | – | 0.0544 | 0.0742 | – | 0.0689 | 0.0763 | 0.0508 | 0.0658
4 | MGESLFKGPRDYNPISSSICHLTNESDGHTTSLYGIGFGPFIITNKHLFRRNNGTLVVQSLHGVFKVKDTTTLQQHLVDGRDMIIIRMPKDFPPFPQKLKFREPQREERICLVTTNFQTKSMSSMVSDTSCTFPSGDGIFWKHWIQTKDGQCGSPLVSTRDGFIVGIHSASNFTNTNNYFTSVPKNFMELLTNQEAQQWVSGWRLNADSVLWGGHKVFMVKPEEPFQPVKAATQL [E231A] | 0.0699 | – | 0.0603 | 0.0564 | 0.0703 | 0.0519 | 0.111 | – | 0.0591 | 0.0589 | 0.0611 | 0.0546 | 0.0775 | 0.0534 | – | – | 0.0901 | – | 0.06
5 | MGESLFKGPRDYNPISSSICHLTNESDGHTTSLYGIGFGPFIITNKHLFRRNNGTLVVQSLHGVFKVKDTTTLQQHLVDGRDMIIIRMPKDFPPFPQKLKFREPQREERICLVTTNFQTKSMSSMVSDTSCTFPSGDGIFWKHWIQTKDGQCGSPLVSTRDGFIVGIHSASNFTNTNNYFTSVPKNFMELLTNQEAQQWVSGWRLNADSVLWGGHKVFMVKPEEPFQPVKQATQL [E231Q] | 0.0627 | – | – | 0.0673 | 0.0705 | 0.0668 | 0.132 | 0.0907 | 0.0648 | – | 0.0548 | – | – | – | – | 0.0714 | 0.0822 | – | –
6 | MGESLFKGPRDYNPISSSICHLTNESDGHTTSLYGIGFGPFIITNKHLFRRNNGTLVVQSLHGVFKVKDTTTLQQHLVDGRDMIIIRMPKDFPPFPQKLKFREPQREERICLVTTNFQTKSMSSMVSDTSCTFPSGDGIFWKHWIQTKDGQCGSPLVSTRDGFIVGIHSASNFTNTNNYFTSVPKNFMELLTNQEAQQWVSGWRLNADSVLWGGHKVFMVKPEEPFQPVKEANQL [T233N] | 0.0702 | 0.0533 | 0.056 | 0.0587 | – | 0.0667 | 0.126 | 0.0616 | – | – | 0.0715 | 0.056 | – | – | 0.0611 | 0.0493 | – | – | –
7 | MGESLFKGPRDYNPISSSICHLTNESDGHTTSLYGIGFGPFIITNKHLFRRNNGTLVVQSLHGVFKVKDTTTLQQHLVDGRDMIIIRMPKDFPPFPQKLKFREPQREERICLVTTNFQTKSMSSMVSDTSCTFPSGDGIFWKHWIQTKDGQCGSPLVSTRDGFIVGIHSASNFTNTNNYFTSVPKNFMELLTNQEAQQWVSGWRLNADSVLWGGHKVFMVKPEEPFQPVKEARQL [T233R] | 0.0726 | 0.053 | 0.0626 | 0.0267 | 0.069 | 0.0607 | 0.0912 | – | 0.0629 | 0.0624 | 0.0434 | 0.0598 | 0.0578 | 0.0685 | – | – | – | 0.0588 | –
8 | MGESLFKGPRDYNPISSSICHLTNESDGHTTSLYGIGFGPFIITNKHLFRRNNGTLVVQSLHGVFKVKDTTTLQQHLVDGRDMIIIRMPKDFPPFPQKLKFREPQREERICLVTTNFQTKSMSSMVSDTSCTFPSGDGIFWKHWIQTKDGQCGSPLVSTRDGFIVGIHSASNFTNTNNYFTSVPKNFMELLTNQEAQQWVSGWRLNADSVLWGGHKVFMVKPEEPFQPVKEATFL [Q234F] | 0.0483 | – | – | 0.068 | – | 0.0514 | 0.106 | – | – | – | 0.0538 | – | 0.0592 | – | 0.0516 | – | 0.0623 | 0.0484 | –
9 | MGESLFKGPRDYNPISSSICHLTNESDGHTTSLYGIGFGPFIITNKHLFRRNNGTLVVQSLHGVFKVKDTTTLQQHLVDGRDMIIIRMPKDFPPFPQKLKFREPQREERICLVTTNFQTKSMSSMVSDTSCTFPSGDGIFWKHWIQTKDGQCGSPLVSTRDGFIVGIHSASNFTNTNNYFTSVPKNFMELLTNQEAQQWVSGWRLNADSVLWGGHKVFMVKPEEPFQPVKEATLL [Q234L] | 0.0657 | 0.0572 | 0.0628 | – | 0.0267 | 0.0573 | – | – | – | – | 0.0683 | – | 0.11 | – | – | 0.0707 | 0.0621 | – | –
10 | MGESLFKGKRDYNPISSSICHLTNESDGHTTSLYGIGFGPFIITNKHLFRRNNGTLVVQSLHGVFKVKDTTTLQQHLVDGRDMIIIRMPKDFPPFPQKLKFREPQREERICLVTTNFQTKSMSSMVSDTSCTFPSGDGIFWKHWIQTKDGQCGSPLVSTRDGFIVGIHSASNFTNTNNYFTSVPKNFMELLTNQEAQQWVSGWRLNADSVLWGGHKVFMVKPEEPFQPVKEATQL [P9K] | – | 0.0635 | – | 0.0667 | – | 0.0573 | 0.109 | – | – | – | 0.0337 | 0.032 | – | 0.064 | – | 0.0606 | 0.085 | – | –
